In all, about 48,000 compounds went through this assay and about 550 (1.1%) were called active. Not shown: some 4% with an inconclusive outcome. No stated cut-off is given here; in the data, active means potency below about 15 µM; inconclusive means mostly about 16 µM to 33 µM; inactive means weaker than that. The list shows a part of the results. A value given as a limit tells only on which side of the number the result lay.
Potency means the concentration at half of the fitted maximal effect.

In this assay the target is Lysosomal acid glucosylceramidase (Homo sapiens) (UniProt P04062). The assay is described as follows: Glucocerebrosidase.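 Further: the screen sought inhibitors.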 The conditions noted are these: purified enzyme, resorufin glucoside fluorescence (screen aimed at inhibitors), 20 min. The procedure, abridged: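 Compounds titrated against 0.2 nM normal enzyme, 30 uM resorufin beta-D-glucopyranoside substrate, citrate/phosphate buffer with taurocholate and tween-20, pH 5.9. Reaction ran 20 min at room temperature; fluorescence (Ex 548/Em 600) gave AC50.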
Sequence of UniProt P04062 (P04062 whole entry, looked up): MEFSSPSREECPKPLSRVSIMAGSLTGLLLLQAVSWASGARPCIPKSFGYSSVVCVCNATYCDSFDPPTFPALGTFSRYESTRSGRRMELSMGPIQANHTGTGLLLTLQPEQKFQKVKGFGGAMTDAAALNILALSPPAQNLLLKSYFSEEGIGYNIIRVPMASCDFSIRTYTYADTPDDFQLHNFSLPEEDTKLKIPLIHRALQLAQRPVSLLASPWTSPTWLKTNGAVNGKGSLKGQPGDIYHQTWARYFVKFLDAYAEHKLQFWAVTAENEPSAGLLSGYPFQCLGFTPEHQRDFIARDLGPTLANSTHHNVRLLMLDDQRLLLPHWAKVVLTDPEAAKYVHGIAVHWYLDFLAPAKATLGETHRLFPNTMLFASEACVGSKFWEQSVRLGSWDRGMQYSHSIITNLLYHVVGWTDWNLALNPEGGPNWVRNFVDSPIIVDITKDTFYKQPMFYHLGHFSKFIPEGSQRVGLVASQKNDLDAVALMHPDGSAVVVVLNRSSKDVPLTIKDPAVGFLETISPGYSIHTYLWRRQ
Regarding `O=C(Cn1c(-c2cncs2)nc2ccccc21)NC1CCCC1`, the Potency is inactive: > 76.9 µM. On to `CCOC(=O)C(NC(=O)c1ccccc1)(N1CCOCC1)C(F)(F)F` (centres undefined), for which the Potency was inactive: > 76.9 µM.

As for `CCn1c(=S)sc2nc(C)sc21`, the Potency was inactive: > 76.9 µM.

For `CC1CN(C(=O)c2ccc(COCC(F)(F)F)o2)CC(C)O1` (centres undefined), the Potency was inactive: > 76.9 µM.

As to `COc1ccc(N(C)S(=O)(=O)c2c(C)[nH]c(=O)[nH]c2=O)cc1`, the Potency is inactive: > 76.9 µM. For `CC(C)OCCCNC(=O)CCc1nc(-c2ccccc2)no1`, the Potency is inactive: > 76.9 µM. Take `COc1cc(OC)cc(C(=O)N(Cc2cc3cc(C)ccc3[nH]c2=O)C(C)C)c1`: the Potency is inactive: > 76.9 µM. As for `CS(=O)(=O)NCc1ccc(C(=O)NCCOc2ccccc2)cc1`, the Potency is inactive: > 76.9 µM. For the molecule `Cc1nc(-n2cc(F)c(=O)[nH]c2=O)c2nc(C)oc2n1`, the Potency is inactive: > 76.9 µM. Regarding `Cc1nn2c(=O)c(NC(=O)c3ccc(F)cc3)cnc2s1`, the Potency is inactive: > 76.9 µM. Regarding `COc1cccc(NC(=O)CSc2nncn2-c2ccccn2)c1`, the Potency is inactive: > 76.9 µM. Turning to `Cc1ccc(-n2c(SCc3cc(=O)n4ccsc4n3)nnc2-c2cccnc2)c(C)c1`, the Potency is inactive: > 76.9 µM. With `Cc1cccc(NC(=O)CSc2nnc(-c3cc(C)n(-c4ccccc4)c3C)o2)c1C` the figure was inactive: > 76.9 µM; with `C/C=C/c1ccc(OCCCn2cncn2)c(OC)c1`, inactive: > 76.9 µM; with `CCn1cc(C(=O)NCC2CCCO2)c2cc(OC)c(OC)cc2c1=O` (centres undefined), inactive: > 76.9 µM. With `CCN(CC)S(=O)(=O)c1ccc(Br)c(OC)c1`, the Potency was inactive: > 76.9 µM. With `Cn1c(=O)c2c(-c3ccncc3)c3c(nc2n(C)c1=O)-c1ccccc1C3=O` the figure was inactive: > 76.9 µM; with `Cc1ccc(CCC(=O)Nc2ccc(S(N)(=O)=O)cc2)o1`, inactive: > 76.9 µM.

`CC1(C)Cc2c(c(=S)nc(-c3ccccc3)n2CCN2CCOCC2)CO1`: the Potency is inactive: > 76.9 µM. With `CCCc1[nH]nc2c1C1(C(=O)N(C(C)C)c3ccccc31)C(C#N)=C(N)O2` (centres undefined) the figure was inactive: > 76.9 µM; with `Cc1ccc(C)c(NC(=O)CSc2nnc(-c3ccco3)o2)c1`, inactive: > 76.9 µM; with `CCCc1nnc(NC(=O)CCC(=O)N2CCN(CCOc3ccc(C)cc3)CC2)s1`, inactive: > 76.9 µM.

Turning to `Cc1cc(C)nc(N(C#N)CN2C(=O)c3ccccc3S2(=O)=O)n1`, the Potency is inactive: > 76.9 µM. As to `O=C(c1cccc(Cl)c1)N1CCCC(C(=O)N2CCCCCC2)C1` (centres undefined), the Potency was inactive: > 76.9 µM. In the case of `CC(c1ccccc1)n1c(NCCCn2ccnc2)nc2c1c(=O)[nH]c(=O)n2C` (centres undefined), the Potency was inactive: > 76.9 µM. With `CCc1nc(SCC(=O)Nc2nccs2)c2oc3ccccc3c2n1` the figure was inactive: > 76.9 µM. For the molecule `O=C(Cn1c(=O)n(CCC(=O)N2CCc3ccccc3C2)c(=O)c2ccccc21)NCC1CCCO1` (centres undefined), the Potency is inactive: > 76.9 µM. Take `OC(CCN1CCOCC1)(c1ccc(Cl)cc1)C1CCCCC1` (centres undefined): the Potency result is “inactive”. Under `CCOC(=O)c1c(C)[nH]c(C(=O)COC(=O)c2cnc(C)cn2)c1C` stands inactive: > 76.9 µM; under `CCCCCn1c(CN2CCN(C(=O)OCC)CC2)nc2c1c(=O)n(C)c(=O)n2C`, inactive: > 76.9 µM.

Consider `COC(=O)C1C(=O)C2=C(CC1C)NC(C)=C(C(=O)OC1CCCCC1)C2c1ccc(N(C)C)cc1` (centres undefined), for which the Potency was inactive: > 76.9 µM. In the case of `COC(=O)c1c(-c2cccs2)csc1NC(=O)c1cccnc1`, the Potency was inactive: > 76.9 µM. In the case of `COc1ccccc1N1CCN(C(=O)c2cc(-c3cccc(Cl)c3)on2)CC1`, the Potency was inactive: > 76.9 µM. As for `COc1ccccc1N1CCN(C(=O)c2ccc3c(=O)n(Cc4ccco4)c(=S)[nH]c3c2)CC1`, the Potency is inactive: > 76.9 µM. For the molecule `C[N+]1(CCOS(=O)C23CC4CC(CC(C4)C2)C3)CCOCC1` (centres undefined), the Potency was inactive: > 76.9 µM. Under `COc1ccccc1N1CCN(C(=O)c2cccc(N3C(=O)NC4CC3(C)Oc3ccccc34)c2)CC1` (centres undefined) stands inactive: > 76.9 µM; under `Cc1ccc(F)cc1NC(=O)c1cccc(N(C)C)c1`, inactive: > 76.9 µM. With `COc1cccc(/C(O)=C2/C(=O)C(=O)N(c3cc(C)on3)C2c2cccs2)c1` (centres undefined) the figure was inactive: > 76.9 µM.

Consider `COc1ccc(NC(=O)c2c(F)c(F)c(F)c(F)c2F)cc1Cl`, for which the Potency was inactive: > 76.9 µM. Take `CCOc1ccc(CCNC(=O)C2CCCN(C(=O)N(C)C)C2)cc1OCC` (centres undefined): the Potency was inactive: > 76.9 µM.

For the molecule `Nc1nc(-c2ccco2)nn1C(=O)CCc1ccccc1`, the Potency is inactive: > 76.9 µM. For the molecule `CCOc1cc(S(=O)(=O)N2CCN(Cc3ccccc3)CC2)ccc1Br`, the Potency entry is “inactive”.

For the molecule `CCOc1ccccc1NC(=O)CN(Cc1ccccc1)S(C)(=O)=O`, the Potency is inactive: > 76.9 µM.

For `CCOC(=O)N1CCN(C(=O)CSCC(=O)N=c2sc3cc(OC)ccc3n2C)CC1`, the Potency is inactive: > 76.9 µM. For the molecule `CCN(CC)S(=O)(=O)c1cccc(-c2nnc(SCc3nnc(-c4cccs4)o3)n2N)c1`, the Potency is inactive: > 76.9 µM. On to `O=C(NCC1CCCCC1)c1ccco1`, for which the Potency was inactive: > 76.9 µM. As to `C=CCn1c(SCC(=O)Nc2ccccc2OC)nnc1-c1ccco1`, the Potency is inactive: > 76.9 µM. As to `COc1cccc(NC(=O)COc2ccc(N3CC(C(=O)NCC(C)C)CC3=O)cc2)c1` (centres undefined), the Potency is inactive: > 76.9 µM.

Regarding `COCCCNC(=O)Cn1ncc2c(=O)oc3ccccc3c21`, the Potency was inactive: > 76.9 µM. Take `CC(=O)c1cccc(NC(=O)N2CCCC2C(=O)Nc2cccc(C)c2)c1` (centres undefined): the Potency was inactive: > 76.9 µM.

`COC(=O)c1ccc2c(=O)n(CCO)c(=S)[nH]c2c1`: the Potency entry is “inactive”. With `COc1ccc(CCN2CNc3c(c(=O)n(C)c(=O)n3C)C2)cc1` the figure was inactive: > 76.9 µM.

For `CCCOC(=O)C1=C(C)NC2=C(C(=O)CCC2)C1c1ccc(N(C)C)cc1` (centres undefined), the Potency is inactive: > 76.9 µM. For `CC1CCc2c(sc3nc(C4CC4)nc(SCC(=O)NCc4ccco4)c23)C1` (centres undefined), the Potency was inactive: > 76.9 µM. Under `C=CCn1c(Br)nc2c1c(=O)[nH]c(=O)n2C` stands inactive: > 76.9 µM; under `Oc1ccc2ccccc2c1C=NCc1cn2ccsc2n1`, inactive: > 76.9 µM.

In the case of `O=C(CCc1ccccc1)Nc1ncn[nH]1`, the Potency is inactive: > 76.9 µM. On to `Cc1oc(-c2ccccc2F)nc1CSCC(=O)NCc1ccc2c(c1)OCO2`, for which the Potency is inactive: > 76.9 µM. In the case of `CCOC(=O)c1cc2c(N)c(C(=O)c3cc(C#N)c(SC)nc3C)sc2nc1C`, the Potency is inactive: > 76.9 µM.

In the case of `CCCc1[nH]nc2c1C(c1ccc(OC)c(CSC3=NCCS3)c1)C(C#N)=C(N)O2` (centres undefined), the Potency is inactive: > 76.9 µM.

Regarding `CCN(CC(=O)NCc1cccs1)C(=O)c1cc(S(=O)(=O)N2CCOCC2)ccc1C`, the Potency is inactive: > 76.9 µM. On to `O=C(C(c1ccccc1)c1ccccc1)N(Cc1ccco1)C1CCS(=O)(=O)C1` (centres undefined), for which the Potency was inactive: > 76.9 µM. In the case of `Cc1cc(C)c2[nH]c(=O)c(CN(CC3CCCO3)S(=O)(=O)c3ccc4c(c3)OCCO4)cc2c1` (centres undefined), the Potency was inactive: > 76.9 µM.

Regarding `Cc1nn(CC(=O)N2CCN(Cc3ccccc3)CC2)c(=O)c2ccccc12`, the Potency was inactive: > 76.9 µM. With `Cc1ccc(CNC(=O)CN2C(=O)C3(OCCCO3)c3ccccc32)cc1` the figure was inactive: > 76.9 µM; with `Cn1c(CCc2ccccc2)nnc1SCC(=O)N1CCCC1`, inactive: > 76.9 µM.

Regarding `O=C(c1csc2c1CCCC2)N1CCN(c2ccccc2)CC1`, the Potency is inactive: > 76.9 µM. With `Cc1ccc(NC(=O)Cn2c(=O)n(CCCCC(=O)NCc3ccco3)c(=O)c3ccccc32)cc1` the figure was inactive: > 76.9 µM; with `CC(C)C(=O)NC(C)C(c1cccs1)N1CCN(C)CC1` (centres undefined), inactive: > 76.9 µM. On to `CCCc1nc2ccccc2c2nc(N)nn12`, for which the Potency was inactive: > 76.9 µM. As for `COc1ccc(CCNC(=O)CCN2C(=O)COc3ccc(C)cc32)cc1OC`, the Potency was inactive: > 76.9 µM. As to `CN(CCO)C(=O)CCC(=O)Nc1ccc(S(N)(=O)=O)cc1`, the Potency is inactive: > 76.9 µM. With `O=C(Nc1ccccc1C(=O)N1CCCCC1)C1CCCCC1` the figure was inactive: > 76.9 µM; with `Nc1cc(N)c(OCC(F)(F)F)cc1OCC(F)(F)F`, inactive: > 76.9 µM. Consider `O=C(CCN1C(=O)c2ccccc2C1=O)N1CCC(c2ccccc2)C1` (centres undefined), for which the Potency was inactive: > 76.9 µM. With `CCCc1nnc(NC(=O)CN2CCOCC2)s1`, the Potency was inactive: > 76.9 µM. Turning to `Cc1nn(-c2ccccc2)c2sc(C(=O)N3CCCCC3)cc12`, the Potency is inactive: > 76.9 µM. Consider `CCOc1ccccc1NC(=O)N1CCC(c2nc3ccc(C)cc3[nH]2)CC1`, for which the Potency entry is “inactive”.

As for `CCOC(=O)c1ccc(NC(=O)CC2C(=O)N(c3ccc(F)cc3)C(=O)N2CCCOC)cc1` (centres undefined), the Potency is inactive: > 76.9 µM. For `O=C(NCc1ccccn1)C1CCCN(S(=O)(=O)c2ccccc2)C1` (centres undefined), the Potency was inactive: > 76.9 µM. For the molecule `Cc1ccc2[nH]c(=O)c(CN(Cc3cccnc3)C(=O)c3ccncc3)cc2c1`, the Potency is inactive: > 76.9 µM.

On to `CC(=O)CC(C)(C)n1nnc(-c2ccccc2)n1`, for which the Potency was inactive: > 76.9 µM. On to `CCOC(=O)CSc1nc2ccccc2n1CC(=O)NC(C)(C)C`, for which the Potency is inactive: > 76.9 µM. As to `CC1CCCC(C)N1C(=O)CSc1nnc(CSc2ncccn2)n1C` (centres undefined), the Potency was inactive: > 76.9 µM.

Consider `c1cc2c(cc1-c1cnc3n1CCC3)OCCO2`, for which the Potency is inactive: > 76.9 µM.

With `N#CCCN(CCC#N)C(=O)c1ccc(Cl)cc1`, the Potency is inactive: > 76.9 µM. As for `COc1cccc(-c2cc(C(=O)Nc3cnn(Cc4ccc(F)cc4)c3)no2)c1`, the Potency was inactive: > 76.9 µM. Turning to `Cn1cccc1C1(C(F)(F)F)NCCNC1=O` (centres undefined), the Potency was inactive: > 76.9 µM.

Take `CC1(C)Cc2ccccc2-c2nnc(-c3cccnc3)n21`: the Potency was inactive: > 76.9 µM.

The values are drawn from PubChem BioAssay AID360 (National Center for Advancing Translational Sciences (NCATS), 2006).
